According to the supplement of paper PMC12217912:
This is one part of the list. The full chains were built here from the parent and the listed change. Inactive controls read about 0.05.

B1: TEV protease; numbered along this chain (parent)
chain: MGESLFKGPRDYNPISSSICHLTNESDGHTTSLYGIGFGPFIITNKHLFRRNNGTLVVQSLHGVFKVKDTTTLQQHLVDGRDMIIIRMPKDFPPFPQKLKFREPQREERICLVTTNFQTKSMSSMVSDTSCTFPSGDGIFWKHWIQTKDGQCGSPLVSTRDGFIVGIHSASNFTNTNNYFTSVPKNFMELLTNQEAQQWVSGWRLNADSVLWGGHKVFMVKPEEPFQPVKEATQL

Variants of: B1
Assay: raw area under fraction-flipped curve 0-4 h after induction (AUC4h, not background-subtracted), DNA-recorder readout of cleavage of the substrate (dimensionless); higher = more cleavage of the substrate by the protease variant
Settings: temperature: 34 °C; time window: 0-4 h after rhamnose induction
Description: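 In vivo DNA recorder in E. coli TOP10(DE3) ΔrhaA at 34 °C. Each TEVp single-site mutant (parent TEVp 0) is paired with a single-site variant of the 7-mer TEVs (canonical ENLYFQ|S). The substrate sits between flexible linkers in a Bxb1-sfGFP-TEVs-SsrA fusion, so cleavage stabilises Bxb1 and speeds flipping of a recombination array, read by NGS. The value is the raw area under the fraction-flipped curve over 0-4 h after rhamnose induction (AUC4h), with ≥20 reads per time point. It is not background-subtracted; inactive controls average about 0.047.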
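Also: Bxb1 expression induced with 0.2% (w/v) L-rhamnose at OD600 near 0.5, cultures sampled hourly, flipped fraction per protease–substrate barcode pair counted by paired-end Illumina sequencing.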

Row | Variant | area with substrate ENLYFAS | area with substrate ENLYFCS | area with substrate ENLYFES | area with substrate ENLYFFS | area with substrate ENLYFHS | area with substrate ENLYFIS | area with substrate ENLYFLS | area with substrate ENLYFNS | area with substrate ENLYFPS | area with substrate ENLYFTS | area with substrate ENLYFVS | area with substrate ENLYFMS | area with substrate ENLYFRS | area with substrate ENLYFWS | area with substrate ENLYFYS | area with substrate ENLYFDS | area with substrate ENLYFKS | area with substrate ENLYFSS | area with substrate ENLYFGS
1 | E107D | 0.061 | 0.066 | 0.0664 | 0.0754 | 0.061 | 0.0677 | 0.0632 | 0.0646 | 0.0567 | 0.0596 | 0.0438 | – | – | – | – | – | – | – | –
2 | G213P | 0.06 | 0.0491 | – | – | – | 0.0514 | – | 0.029 | 0.0604 | – | – | 0.0633 | 0.043 | 0.0782 | 0.0471 | – | – | – | –
3 | V220H | 0.0484 | 0.12 | 0.0623 | 0.0827 | 0.0694 | 0.0515 | – | 0.0052 | 0.0558 | 0.0664 | – | 0.0628 | 0.0624 | 0.0502 | – | 0.0902 | 0.0663 | 0.0648 | –
4 | S135M | 0.0515 | – | 0.0557 | 0.0538 | 0.0656 | 0.0577 | 0.0603 | 0.0617 | 0.0605 | 0.0651 | – | 0.0592 | 0.0447 | 0.0635 | 0.042 | 0.0599 | 0.073 | 0.0884 | –
5 | R51V | 0.0508 | – | – | 0.0553 | 0.0663 | 0.0549 | 0.0764 | – | 0.0512 | – | – | 0.0692 | 0.052 | 0.0377 | 0.0754 | – | 0.144 | – | 0.0565
6 | R51E | 0.0634 | 0.0442 | 0.0643 | 0.0595 | 0.0584 | 0.0579 | – | 0.0757 | 0.0526 | – | 0.0655 | 0.0619 | – | – | 0.0507 | 0.0661 | – | – | –
7 | Y34M | 0.0595 | – | – | 0.0729 | 0.0559 | 0.0574 | – | 0.071 | 0.0487 | – | – | 0.0985 | – | 0.0592 | – | 0.0713 | – | 0.055 | –
8 | D149F | 0.0555 | 0.0631 | 0.0726 | 0.0604 | – | 0.0563 | 0.0698 | 0.0554 | 0.0556 | 0.0453 | 0.0452 | – | 0.0641 | 0.0737 | 0.0498 | 0.0535 | 0.0717 | – | –
9 | I167P | 0.0216 | – | 0.0511 | 0.0501 | – | – | – | – | – | – | – | 0.049 | – | – | 0.0421 | 0.0477 | 0.0382 | – | –
10 | I167Q | 0.0908 | – | 0.0818 | – | 0.067 | 0.046 | – | – | – | 0.0645 | 0.0625 | 0.0614 | – | 0.0506 | 0.0589 | 0.0485 | – | – | –
11 | F218E | 0.0639 | 0.0585 | – | 0.0681 | – | 0.0611 | 0.0676 | 0.0653 | 0.0608 | 0.0432 | – | 0.0631 | 0.0568 | 0.0656 | 0.0685 | 0.0785 | 0.0647 | 0.0447 | 0.0613
12 | F218C | 0.057 | – | 0.0591 | – | – | 0.0558 | – | 0.0593 | 0.0625 | 0.0602 | – | – | – | – | – | – | 0.0664 | – | –
13 | H143Q | 0.0579 | – | 0.0616 | 0.0626 | 0.0573 | 0.0548 | 0.0504 | 0.0578 | – | – | – | 0.0661 | 0.0455 | 0.0651 | 0.0656 | 0.0552 | 0.0528 | 0.0584 | 0.0786
14 | H143Y | 0.0638 | 0.0538 | – | 0.0655 | 0.0603 | 0.052 | 0.0303 | – | 0.0427 | – | – | 0.0592 | 0.0534 | 0.0474 | 0.0556 | – | 0.0654 | 0.0744 | –
